In PubChem BioAssay AID1745845 (National Center for Advancing Translational Sciences (NCATS), 2022):
Screen size: about 360,000 compounds; about 2,600 (0.72%) were called active. This list was built around the results that the source calls inconclusive (neither active nor inactive); the mix of calls is not that of the screen. Calls follow the shape of the dose curve; as a rule, active = well fitted inhibition curve with a large enough effect; inconclusive = small, poorly fitted or top-dose-only effect; inactive = no such curve, though single readings can be large or run the other way. Where the call is inconclusive, the potency comes from a doubtful curve fit.

Assay: Primary qHTS for Inhibitors of ATXN expression; also: nearly all actives have a fitted effect of over 55% in size
Conditions: HEK-293 ATXN2-luciferase reporter, luminescence, 24 h; activity change, negative = inhibition: at 57 µM (top of the series)
Outline: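 qHTS (up to 57 uM final) was run with 24 h compound exposure of reporter cells at 37 °C. Each well was multiplexed: SteadyGlo luminescence measured ATXN2-luciferase expression after a fluorogenic Gly-Phe-AFC viability readout (25 uM final).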
% is scaled to controls: 0 for no effect and ±100 for the full control effect; potency is read from the fitted curve at half-maximal effect; tags tell the direction and shape of the fitted curve.

SMILES | Potency | activity change, negative = inhibition
COc1ccccc1-c1cn[nH]c1-c1ccc(OCc2ccccc2F)cc1O | inconclusive: 17.8 µM [inhibitor, single point] | –
COc1cccc(-c2cc3nc(-c4ccccc4)cc(N4CCN(C(=O)c5ccoc5)CC4)n3n2)c1 | inconclusive: 17.8 µM [inhibitor, partial curve] | –
COc1ccc(/C=N/NC(=O)c2csc(-n3nc(C)cc3C(F)(F)F)n2)cc1 | inconclusive: 39.8 µM [inhibitor, partial curve, poor fit] | –
CC(C)N=c1scc(-c2cccs2)n1/N=C/c1ccc(O)c(O)c1O | inconclusive: 39.8 µM [inhibitor, single point] | –
CN(C)S(=O)(=O)N1CCCN(S(=O)(=O)N(C)C)CC1 | inconclusive: 25.1 µM [inhibitor, partial curve, poor fit] | –
Cc1cccc(-n2cnc3cc(C(=O)NCc4ccccc4Cl)ccc32)c1 | inconclusive: 39.8 µM [inhibitor, single point] | –
COc1ccc(N(CC(=O)Nc2cc(OC)cc(OC)c2)S(=O)(=O)c2c(C)noc2C)cc1 | inconclusive: 15.8 µM [inhibitor, partial curve, poor fit] | –
COc1ccc(N2CCN(c3ncnc4scc(-c5ccccc5)c34)CC2)cc1 | – | inconclusive: -39.7% [inhibitor]
CC(C)(C)OC(=O)N1CCC(C(=O)N[C@@H](Cc2ccccc2)C(=O)O)(c2ccccc2)CC1 | inactive | –
C=CC[C@@H](CC(=O)N(CCO)Cc1ccccc1)C(=O)N[C@H](COC(=O)[C@@H](CC=C)CC(=O)OC(C)(C)C)Cc1ccccc1 | inconclusive: 35.5 µM [inhibitor, single point] | –
COc1ccccc1N1CCN(CCCCCCOc2ccc(F)cc2)CC1 | inconclusive: 20 µM [inhibitor, single point] | –
Cc1cccc(OCCC(=O)Nc2ccc(C)c(S(=O)(=O)N3CCCCC3)c2)c1 | inconclusive: 39.8 µM [inhibitor, single point] | –
Clc1ccc2c(SCC3CO3)c3ccccc3nc2c1 (centres undefined) | inconclusive: 33.6 µM [inhibitor, single point] | –
C#C[C@]1(O)CC[C@H]2[C@@H]3CCC4=CC(=O)CC[C@@H]4[C@H]3CC[C@@]21C | inactive | –
Cc1ccccc1NC(=O)/C=C/c1ccc([N+](=O)[O-])s1 | active: 10 µM | –
CC(=O)C1=CCC(c2ccccc2Cl)N(S(=O)(=O)c2ccc(C)cc2)C1 (centres undefined) | inactive | –
CN(C)CCNC(=O)c1ccc(-c2cn3c(-c4ccc(Oc5ccccc5)cc4)cnc3cn2)cc1 | inconclusive: 39.8 µM [inhibitor, single point] | –
OC(c1ccc(F)cc1)c1ncc(-c2ccc(Oc3ccccc3)cc2)[nH]1 (centres undefined) | inactive | –
Cc1cccc(OCCn2cc(/C=N/NC(=O)c3ccncc3)c3ccccc32)c1 | inconclusive: 37.7 µM [inhibitor, single point] | –
O=C(CNC1CCCCCC1)Nc1ccccc1N1CCCCC1 | inactive | –
Cc1c(O)cccc1C(=O)N[C@@H](CSc1ccccc1)[C@H](O)CN1C[C@H]2CCCC[C@@H]2C[C@@H]1C(=O)NC(C)(C)C | inconclusive: 30.6 µM [inhibitor, single point] | –

SMILES | Potency | activity change, negative = inhibition
CC(C)CCOc1cccc(OCC(=O)Nc2ccncc2)c1 | inactive | –
CCN(CC(=O)Nc1ccc(NC(C)=O)cc1)C(=O)c1ccccc1SCC(=O)N1CCCC1 | inactive | –
CCCC(=O)OC/C(O)=C(\C#N)c1nc2ccccc2[nH]1 | inconclusive: 26.7 µM [inhibitor, single point] | –
COc1ccc(-c2cc(C)no2)cc1S(=O)(=O)NCc1cccc(C)c1 | inactive | –
FC(F)(F)c1cccc(/C=N/NC(=S)NC2CCCCC2)c1 | inconclusive: 37.7 µM [inhibitor, single point] | –
O=C(CCl)Nc1ccc(N2CCCCCC2)cc1 | inconclusive: 31.6 µM [inhibitor, single point] | –
COc1ccc(-n2c(COc3cccc4ccccc34)nnc2SCC(=O)NCc2ccco2)cc1 | inconclusive: 39.8 µM [inhibitor, single point] | –
CCc1ccccc1NC(=O)c1ccc2c(O)c(S(=O)(=O)c3ccc(OC)cc3)c(=O)[nH]c2c1 | inactive | –
O=C(Nc1ccc(OC(F)F)c(Cl)c1)C(c1ccccc1)c1ccccc1 | inconclusive: 35.5 µM [inhibitor, single point] | –
O=C(NCCSc1c[nH]c2ccccc12)c1ccc(Cl)cc1 | inconclusive: 22.4 µM [inhibitor, partial curve, poor fit] | –
CC1(C(=O)Nc2ccc(Cl)c(C(F)(F)F)c2)Cc2c(-c3cccc(C(N)=O)c3)ccnc2O1 (centres undefined) | inconclusive: 39.8 µM [inhibitor, single point] | –
O=C(/C=C/c1ccc(O)cc1)c1ccc(NC2=C(N3CCCCC3)C(=O)c3ccccc3C2=O)cc1 | inconclusive: 31.6 µM [inhibitor, partial curve, poor fit] | –
O=S(=O)(c1ccccc1OC(F)(F)F)N1CCN(c2ccnc3cc(Cl)ccc23)CC1 | inconclusive: 2.82 µM [inhibitor, partial curve, poor fit] | –
COc1ccc(C(=O)CC2(O)C(=O)N(Cc3ccccc3)c3ccc(Br)cc32)cc1 (centres undefined) | inconclusive: 31.6 µM [inhibitor, single point] | –
CCC1Nc2ncnc(N3CCc4ccccc4C3)c2N(Cc2ccc(Cl)cc2)C1=O (centres undefined) | inconclusive: 39.8 µM [inhibitor, partial curve, poor fit] | –
CCC/C=C/c1ccc(CN2C(CC(C)C)C(=O)N(Cc3cn(CCC4OCCO4)nn3)CCS2(=O)=O)cc1 (centres undefined) | inconclusive: 35.5 µM [inhibitor, single point] | –
COc1ccc(-c2nn(C)c3sc(C(=O)NCCN(C)C)cc23)cc1OC | inconclusive: 39.8 µM [inhibitor, single point] | inconclusive: -40.3% [inhibitor]
CC(C)(C)N1CC(C(=O)Nc2ccc(S(=O)(=O)N3CCCCC3)cc2)CC1=O (centres undefined) | inactive | –
COc1cccc2sc(N(CCCN(C)C)C(=O)c3ccc(S(=O)(=O)N4CCc5ccccc5C4)cc3)nc12 | inconclusive: 25.1 µM [inhibitor, single point] | –
CCOC(=O)c1ccc(CN(Cc2ccccc2)S(=O)(=O)c2cccc([N+](=O)[O-])c2)cc1 | inconclusive: 28.2 µM [inhibitor, partial curve, poor fit] | –
Cc1cc(C)nc(SC2CC(=O)N(c3ccc(Cl)cc3)C2=O)n1 (centres undefined) | inactive | –

SMILES | Potency | activity change, negative = inhibition
Cc1ccc(C)c(NC(=O)c2ccccc2NS(=O)(=O)c2cc([N+](=O)[O-])ccc2C)c1 | inconclusive: 7.94 µM [inhibitor, full curve] | –
O=C(COc1ccccc1Cl)NCCCNC(=O)c1cccnc1 | inactive | –
CCn1c(=NC(=O)CSC(C)=O)sc2ccccc21 | inconclusive: 31.6 µM [inhibitor, partial curve] | –
O=C(c1ccc(Br)c(S(=O)(=O)N2CCCCC2)c1)N1CCCCC1 | inactive | –
O=C1Nc2ccccc2/C1=C\C(=O)c1ccccc1 | inconclusive: 22.4 µM [inhibitor, single point] | –
CCOC(CNCc1cc(C)c2[nH]c3ccccc3c2c1C)OCC | inconclusive: 20 µM [inhibitor, partial curve, poor fit] | –
O=C1C(Cl)=C(N2CCC(C(=O)O)CC2)C(=O)c2ccccc21 | active: 25.1 µM | –
CCn1nc(C)c2c(-c3ccccc3)cc(=O)n(C(C)C(=O)Nc3ccc(OC)c(OC)c3)c21 (centres undefined) | inactive | –
Oc1ccc(N2CCN(C(=S)NCCc3ccccc3)CC2)cc1 | inconclusive: 7.94 µM [inhibitor, partial curve, poor fit] | –
O=c1c(O)c(-c2ccccc2)oc2ccccc12 | inconclusive: 39.8 µM [inhibitor, single point] | –
COc1ccc(-c2c([C@H]3[C@H]4C=CC[C@@H](C)[C@@H]4C(=O)N3Cc3ccccc3)ccc3ccccc23)cc1 | inconclusive: 31.6 µM [inhibitor, partial curve, poor fit] | –
O=S1(=O)CC(N2CC=CC2)CN1Cc1ccc(F)cc1 (centres undefined) | inactive | –
C/C(=N\NC(=O)CCCNc1ccc(C)cc1)c1ccccn1 | active: 28.2 µM | –
CCn1cc(C(=O)OCC(=O)Nc2cc(Cl)ccc2C)c(=O)c2ccc(C)nc21 | inactive | –
CC1CCN(S(=O)(=O)c2ccc3nc(NCc4ccc(N(C)C)cc4)ccc3c2)CC1 | inconclusive: 11.2 µM [inhibitor, partial curve, poor fit] | –
CCOc1cc(CNCCc2ccc(S(N)(=O)=O)cc2)ccc1OCc1ccccc1 | inconclusive: 20 µM [inhibitor, partial curve] | –
Cc1ccc(C)c(CC(=O)N2CCCCC2c2cc(C(=O)Nc3cccc(C#N)c3)no2)c1 (centres undefined) | inactive | –
C/C(=N\N1CCN(Cc2ccccc2Cl)CC1)c1ccc([N+](=O)[O-])cc1 | inconclusive: 31.6 µM [inhibitor, partial curve, poor fit] | –
Cc1cc2c(c(/C=C/C(=O)c3ccccc3)c1)OC1(C=C2)Oc2ccccc2C(=O)N1C (centres undefined) | inconclusive: 26.7 µM [inhibitor, single point] | –
CC[C@H](C)n1cc(C)c2c(C(=O)NCc3c(C)cc(C)[nH]c3=O)cc(-c3ccc(N4CCNCC4)nc3)cc21 | inconclusive: 30.6 µM [inhibitor, single point] | –
CCOc1cc(NC(=O)c2ccco2)c(OCC)cc1NC(=O)c1cc(OC)c(OC)c(OC)c1 | inactive | –
